In the supplement of paper PMC11417369:
The list shows a part of the results.

tested on: PfSIP2 AP2 domain 1 (GST-tagged); assay: gcPBM binding intensity (ln(normalized median fluorescence intensity)); higher = stronger DNA binding
How it was run: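 Each value is the highest Masliner-normalised natural-log median intensity across replicate spots of either orientation of a probe. The probes were primer-extended double-stranded 36-bp intergenic genomic sequences on an Agilent 4 × 180k array, alongside negative controls, exposed for 1 h to GST-tagged P. falciparum DNA-binding domains expressed in E. coli. Bound protein was picked up with Alexa488 anti-GST antibody and scanned at 488 nm.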

| Sequence | gcPBM binding intensity (ln) |
| --- | --- |
| TTTGTCATTTTATTATGTACTCAGCATATAGGGGGG [XGTACX_site505] | 9.51 |
| AAAAAAATTCTGACTTGTACATATAAAATTTACAAA [XGTACX_site4408] | 6.77 |
| GATTTTTAAAATATCACACATAAAAAAAAAAAAAAA [CACACA_site5516] | 6.96 |
| TAATTTAATAATTAGACACACATGTGGAAAATAAAA [CACACA_site5401] | 7.2 |
| ACATATATATAAAGGTGTACACATATATATATATAT [XGTACX_site4779] | 9.18 |
| ATACTAAAGAAACACACACACATATATATATAGAAT [CACACA_site100] | 7.01 |
| TTTACACCCTAAAAATGTACAAGAAAGATTATATTA [XGTACX_site1102] | 7.03 |
| ATTTTTTTCCTAATGGTGCGAATAAATATCCATACC | 9.88 |
| TTAACAGTAAAACACAGTACATATATACTTAAAACA [XGTACX_site1930] | 6.93 |
| AAAGCTTACATATACACACATACATAAATTCATAAA [CACACA_site2469] | 7 |
| AAAAAAAAAAAAGGAACACACAAGTAACAATAAATT [CACACA_site2481] | 6.83 |
| TTTTTTTATTATACTAGTACATATATATACAGCACA [XGTACX_site3464] | 7.4 |
| TAATCTCATAAAACCGCACACACATAAAATTTGCAT [CACACA_site3890] | 7.21 |
| TTTTTAATAATCTCTCAAAATGTTCTTATATTTTAC [CACACA_negctrl_site1691] | 6.67 |
| GAGAAATGGGGACACACACACATATTATAGATATAT [CACACA_site6829] | 7.2 |
| TTGTTTGATATCTTTGTCACGAAAAAAATATATATA [GTGCAC_negctrl_site54] | 7.21 |
| TAAGGATAAAATAAATGTACATATGTAAAATTATTA [XGTACX_site4170] | 6.68 |
| GTCTATAACTATTGCGCACACTTTAAAAAAAAAGAA [CACACA_site1003] | 9.11 |
| TAGAAGCATTGACACACACACATACATACACATACA [CACACA_site6802] | 7.32 |
| TATATATATATATAATGTACATAATAATAATACATC [XGTACX_site5587] | 8.99 |
| CTAGACTTTATTAATTGTACATATGTGTATTTTATA [XGTACX_site480] | 6.74 |
| TTTTCCTTTACATAATGTACACAAAAAAAAAAAAAA [XGTACX_site716] | 7.38 |
| GTTACTGCATACATAACACACATATTCAAAACCCAT [CACACA_site5856] | 7.13 |

| Sequence | gcPBM binding intensity (ln) |
| --- | --- |
| AATACAGACAGACACACACACAAAATAAAATACAAA [CACACA_site245] | 7.31 |
| CATCATAGAGTGGAGTGTACAAATATGTCAACATAT [XGTACX_site2264] | 7.04 |
| TCTTTTTTTTGAATTTGTACATAAGACAATAAAAAA [XGTACX_site4682] | 7.03 |
| ATAAAAAAATCAGACACACACACGTAAACCCATACA [CACACA_site2773] | 7.1 |
| ACATATTTATATATGTGTACATAAATATTCTTTTAA [XGTACX_site8238] | 6.92 |
| ATATTAAGGTTTATATTTTAACTTATTATTTTATTC [CACACA_negctrl_site795] | 6.63 |
| AAAAAAAAAAAACACACACACACACCCATATACATA [CACACA_site2664] | 7.12 |
| GTAAAAAGATAATGAAGTACATTTTTTCATTTTTAT [XGTACX_site5579] | 6.64 |
| ATATATTCAATTCATACACACACAATTTAAGAATGA [CACACA_site9289] | 7 |
| CATATCCTTACGAACTGTACAATATTAAGAATAAAA [XGTACX_site1651] | 7.27 |
| ATTTATTTTTTTATCACACATTTGTGAAATGTGCAT [CACACA_site5869] | 7.01 |
| TTATAGTATTTATAATGTACAAATATATTTTATTTT [XGTACX_site5015] | 6.89 |
| ATATATATATTTATAGTGCATTTATATTAAAATATC [GTGCAC_site9818] | 8.92 |
| TCAAATAGAAAATAAAGTACTTAATTTTTAGGAACA [XGTACX_site1446] | 6.93 |
| TTGAATATTTAAAAACGTACATAAAATTATTTGATT [XGTACX_site5422] | 7.07 |
| ATATTTATATTTTTTTGTACATATATAATTTTATAA [XGTACX_site4151] | 7.09 |
| ATATATATTTATATATGTACATATTAATATATATAT [XGTACX_site1144] | 8.36 |
| AAATTAAAATATATATGTACATATATATATATATAT [XGTACX_site7844] | 9.27 |
| GAGCTTTGGATGAAAGCATGCGATGAATGGATAAAA [TGCATGCA_site786] | 6.94 |
| AACACAAATAAGTATTTGGATTATATTACATTTATA [CACACA_negctrl_site465] | 6.75 |
| TAAATAGGAAAACCTATACACACTTTAAAAAAAATA [CACACA_site1621] | 6.75 |
| TAAATTAAAAAAAAAAACAAAAAAAAAGCAACAAAA [CACACA_negctrl_site1318] | 6.92 |
| ATAAAAATAAATAAATGTACATATATATATATATAT [XGTACX_site1277] | 9.18 |

| Sequence | gcPBM binding intensity (ln) |
| --- | --- |
| ATTTATTTCAATAAACTTCTTTTCTTTAACAATTAC [CACACA_negctrl_site1222] | 6.73 |
| TATAAAAATGTGTATGTACACACTTTATTTTTAATA [CACACA_site2532] | 7.12 |
| TATTTTTCCCTATGCACACACACCGTATATATAATA [CACACA_site4758] | 7.86 |
| AGTATTTCCATATGTACATGCAAAAGGAAAGATATA [TGCATGCA_site850] | 7.26 |
| TGTCCAATTTTTTATCGTACATAATATATAAATAAA [XGTACX_site1705] | 7.51 |
| AAATATAAAAATAGCACACATATATACATATATATA [CACACA_site56] | 7.43 |
| AGAAACGTAAGTTATACACACATGTCAAAAGAAAAA [CACACA_site312] | 6.79 |
| ATCCATCTTTTATATAGTACTTTATAATATATATAT [XGTACX_site8064] | 8.6 |
| CAATGTTAATATAATACACACAATATGTATTTGTCT [CACACA_site1162] | 6.85 |
| TTGTTAATATATATATGTACTTATTTATTTATTTAT [XGTACX_site2274] | 7.01 |
| TTTGAATTTTTTAACACACACATGTCTGGATATATA [CACACA_site1645] | 6.92 |
| GAAAAAAAAAAAAAAAGTACATGTCATAAATTGTAT [XGTACX_site1461] | 6.82 |
| TTTTCCTTAACACACGTTTATATAAAAAATTAAAAT [XGTACX_negctrl_site115] | 7.34 |
| AATGAAAAATGTATCGTTAAAGGGTATCTTAAGGAT [XGTACX_negctrl_site222] | 6.84 |
| CCAAAGAAATATAATACACACAAGAATATATTGGAT [CACACA_site6018] | 6.96 |
| AAGTATTACAACCACACACACACCTATATATTATAT [CACACA_site4158] | 7.14 |
| ACTTGTTTTCAATGTAAAATACAATTTTCATTTATT [CACACA_negctrl_site435] | 7.08 |
| AAAAAAAAAAGACACACACACAAATACAAATACATA [CACACA_site6334] | 6.9 |
| TTTTAAACAAAAAATTGTACAATTAGTGTATAATCC [XGTACX_site778] | 7.27 |
| AAAGGAAATTAAAATTGATTACATATATAAAAAAAC [XGTACX_negctrl_site196] | 7.11 |
| AATTTAATATAATGCACACATAAAAAAAAAAAAAAA [CACACA_site123] | 7.42 |
| CTTTATTATAAGATTACACACATGTGTTATAATTTA [CACACA_site3169] | 6.83 |
| TTGACCTTAAGAAGGTTGCACTAATCATTCAAAGTT | 7.99 |

| Sequence | gcPBM binding intensity (ln) |
| --- | --- |
| CCATTTATTATTTGGGGTACATTTAATTAATATTTT [XGTACX_site5940] | 7.43 |
| ATTTAAGGGGTGTATGCACACGACTATTCCGTATGA [CACACA_site4738] | 6.99 |
| AATATTTTAAGGCACACACACAAAAAAAAAAAAAAA [CACACA_site2890] | 7.22 |
| TAATTTAGTATCTTTACATGCGGGCATTATGTCATA [TGCATGCA_site167] | 6.74 |
| ATAGGCACTTTTTGCACACGTATGAATAACAAAATA [CACACA_site5069] | 7.57 |
| TGAAAATTTTAATGAGGAAATAAAATAAATATAATA [GTGCAC_negctrl_site159] | 7 |
| TTTATTAATAGACACACACACACACGCAAAATAAAA [CACACA_site6255] | 7.19 |
| CCAAAGGGGGTATACTGTACATATAGTGGTTATATA [XGTACX_site1515] | 7.48 |
| TGTAAAACTGAAAAGGGTACATATAAATATATATAT [XGTACX_site69] | 8.27 |
| ATTTATTTTTATATAACACACAAAGTATAATATAAC [CACACA_site3582] | 6.94 |
| ATATATATATCGATCTGTACATATATTTATAGACAT [XGTACX_site4236] | 9.03 |
| ATATATTTATATTTATGTACATATCTTTATTTACGT [XGTACX_site6800] | 7.14 |
| ATTAGTAAGAATCATTGTACATTATAATATGTGGTA [XGTACX_site1341] | 7.22 |
| TTTTTAAAAAAGTAAAGTACAAAAAAAAGGAATATC [XGTACX_site588] | 7.38 |
| TGCTTCCTTAGGAATGTACACACATATATAATATGT [CACACA_site8048] | 7.06 |
| AAAGAAATACAATGATGTACATTTAAAAAAAATTAA [XGTACX_site4324] | 6.79 |
| ACAAGAAAATATATTTGTACATATATAATTTTATTT [XGTACX_site548] | 6.84 |
| ATTCTTTTTTTTTGGAAATGTATTTTTATGTTTTGT [TGCATGCA_negctrl_site426] | 6.73 |
| ATTTTAGATGAAAAAGCACACAACATATATATATAT [CACACA_site2295] | 9.51 |
| ACGTTGAAGAAATACACATGCATATTCTATATATAT [TGCATGCA_site76] | 7.55 |
